# Article PMC4336329 (PLoS ONE, 2015)
# About 2,200 (0.71%) of roughly 310,000 compounds showed an effect of 50% or more. The effect is printed as a negative number. The list shows a part of the results.
# Molecular target: human ether-à-go-go-related gene (hERG) potassium channel (human, UniProt Q12809)
# Assay: primary screen, population patch clamp on CHO cells stably expressing hERG
# Sequence of human ether-à-go-go-related gene (hERG) potassium channel (Q12809 whole entry, looked up): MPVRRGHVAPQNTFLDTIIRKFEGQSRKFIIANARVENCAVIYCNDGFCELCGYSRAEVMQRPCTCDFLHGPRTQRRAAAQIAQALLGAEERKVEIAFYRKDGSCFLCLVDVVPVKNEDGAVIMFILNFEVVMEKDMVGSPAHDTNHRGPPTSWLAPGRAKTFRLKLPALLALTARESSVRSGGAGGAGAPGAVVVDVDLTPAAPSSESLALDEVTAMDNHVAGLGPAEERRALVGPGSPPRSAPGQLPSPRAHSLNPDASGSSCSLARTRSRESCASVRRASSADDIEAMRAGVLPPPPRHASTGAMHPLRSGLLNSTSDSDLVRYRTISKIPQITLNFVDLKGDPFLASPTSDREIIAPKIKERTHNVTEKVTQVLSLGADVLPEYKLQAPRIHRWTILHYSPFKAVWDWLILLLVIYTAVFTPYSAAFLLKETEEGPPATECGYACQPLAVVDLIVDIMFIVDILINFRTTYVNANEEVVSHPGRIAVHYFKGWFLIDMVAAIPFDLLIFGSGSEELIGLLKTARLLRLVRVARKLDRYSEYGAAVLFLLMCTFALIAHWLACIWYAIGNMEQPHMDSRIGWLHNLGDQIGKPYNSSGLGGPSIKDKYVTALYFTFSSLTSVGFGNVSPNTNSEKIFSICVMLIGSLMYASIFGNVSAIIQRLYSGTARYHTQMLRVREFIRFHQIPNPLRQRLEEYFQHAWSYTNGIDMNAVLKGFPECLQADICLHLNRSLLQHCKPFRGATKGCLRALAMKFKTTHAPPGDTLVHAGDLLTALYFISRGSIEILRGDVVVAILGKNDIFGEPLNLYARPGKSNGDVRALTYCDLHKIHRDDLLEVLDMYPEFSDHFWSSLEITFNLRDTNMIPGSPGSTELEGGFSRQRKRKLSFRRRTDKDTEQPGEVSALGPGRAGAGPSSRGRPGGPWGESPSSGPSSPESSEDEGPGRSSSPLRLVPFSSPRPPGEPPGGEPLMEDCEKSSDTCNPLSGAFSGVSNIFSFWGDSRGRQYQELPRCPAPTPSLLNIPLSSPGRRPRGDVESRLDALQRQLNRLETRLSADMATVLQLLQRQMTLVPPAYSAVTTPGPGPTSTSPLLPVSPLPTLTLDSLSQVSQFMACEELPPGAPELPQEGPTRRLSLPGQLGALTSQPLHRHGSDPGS
row,SMILES,"hERG current change (%, negative = inhibition) at 1uM [%]"
1,CC(=O)Nc1ccc(NC(=O)[C@@H]2CCCN2S(=O)(=O)c2ccc3c(c2)OCCO3)cc1,11.8
2,CCc1nc(SCc2ccc(OC)cc2)n[nH]1,24.2
3,Cc1ccccc1NC(=S)N(CCN1CCOCC1)Cc1ccccc1F,18.7
4,Cc1ccnc(NS(=O)(=O)c2ccc(N3C(=O)Nc4ccccc4N3O)cc2)c1,12.4
5,O=C(Oc1ccc(C(=S)N2CCCCC2)cc1)c1ccccc1,7.88
6,Cn1c(CNC(=O)CNC(=O)c2ccccc2F)cc(=O)n(C)c1=O,25.2
7,CCn1c(SCC(=O)N/N=C/c2ccccc2OCC(=O)O)nnc1-c1ccccc1,6.93
8,COc1ccccc1NC(=O)N1CCN(c2ccccn2)CC1,9.96
9,Cn1c(=O)oc2ccc(C(=O)CSc3nnnn3-c3ccccc3)cc21,9.68
10,Cc1cc(Nc2ccccc2)cc(=O)n1C,14.4
11,COc1cc(NC(=S)NCc2ccc(S(N)(=O)=O)cc2)cc(OC)c1,9.63
12,CCN(CC(=O)Nc1ccc(OC)cc1)C(=O)CSCc1ccc(C)cc1,4.28
13,CCOC(=O)c1cccc(NC(=O)c2cccs2)c1,3.48
14,Cc1ccc(OCCC(=O)OCC(=O)N2c3ccccc3CC2C)cc1 (stereo not shown),16.5
15,Cc1ccc(C(=O)N(Cc2ccccc2)C(C)(C)C)cc1C,8.61
16,O=C(Nc1ccccc1C(=O)NCc1cccnc1)c1ccc(Cl)cc1Cl,7.71
17,O=c1cc(N2CCN(c3ccccc3Cl)CC2)[nH]c(=O)n1Cc1ccc(F)cc1,-6.82
18,O=C(CCC1CCCCC1)NNC(=O)NC12CC3CC(CC(C3)C1)C2,14.2
19,CC(C)NC(=O)C(c1ccc(F)cc1)N(C(=O)CCC(=O)Nc1ccccn1)c1ccccc1F (stereo not shown),10.9
20,Cc1ccccc1C(=O)NNC1CC(=O)N(c2ccc3c(c2)OCCO3)C1=O (stereo not shown),1.42
21,COc1cc2nc(SCC(N)=O)n(CCC3=CCCCC3)c(=O)c2cc1OC,-2.14
22,COc1ccc(-c2csc(Nc3ccccn3)n2)cc1,10.5
23,O=C1CC(c2ccco2)CC2=C1C=Nc1ccccc1N2 (stereo not shown),-3.98

row,SMILES,"hERG current change (%, negative = inhibition) at 1uM [%]"
1,Cc1nc2sc(C(=O)c3ccccc3)c(N)c2c2c1CCCC2,16
2,CC(C)C(=O)OCc1cn(-c2ccc(Cl)c(Cl)c2)nn1,10.3
3,O=C(CSc1nnc(-c2cccs2)n1-c1ccccc1)NCc1ccco1,-65.9
4,CC(Nc1ccc(Cl)cc1)c1cc(Cl)ccc1O (stereo not shown),3.82
5,O=C(Nc1ccccc1)OC1C2CCC1C(N1CCCCC1)CC2 (stereo not shown),-12.2
6,CCNC(=S)Nc1cc(Cl)ccc1Oc1ccccc1,8.1
7,Cc1cc(C)c(-c2cc(NC(=O)CSc3n[nH]c(N)n3)n(-c3ccccc3)n2)cc1C,15
8,COc1ccccc1/C=N/NC(=O)C(=O)Nc1ccccc1OC(F)(F)C(F)F,5.98
9,CC(=O)c1ccc(NC(=O)C2CCCC2)cc1,13
10,Cl.O=C(O)c1ccc(CNCc2ccccc2Cl)cc1,-13.8
11,O=c1c(Cl)c2oc3ccccc3nc-2c2ccccc12,17.5
12,COc1ccccc1NC(=S)NC(=O)/C=C/c1ccco1,17.6
13,Cc1cc(Nc2ccc(F)cc2F)n2nc(C)nc2n1,9.5
14,Cc1ccc(C(=O)OC(C)C(=O)Nc2ccc3c(c2)OCO3)c(O)c1 (stereo not shown),1.38
15,C=CCn1c(SCC(=O)Nc2ccc(S(N)(=O)=O)cc2)nnc1-c1cnccn1,14.3
16,CC1(C)SC2C(NC(=O)COc3ccccc3)C(=O)N2C1C(=O)O (stereo not shown),-0.761
17,COCCOC(=O)C(CC(=O)O)NCc1ccco1 (stereo not shown),11
18,COc1ccc(NC(=O)C2CCCNC2=O)cc1 (stereo not shown),11.7
19,COc1cc2c(cc1NC(=O)COC(=O)c1ccccc1)oc1ccccc12,8.9
20,Cn1cccc1C1Nc2ccccc2NC2=C1C(=O)CC(C)(C)C2 (stereo not shown),14.7
21,O=C(c1ccccc1)c1cc2ccc(O)cc2oc1=O,6.56
22,CSCc1cc(N(C)c2ccccc2)nc(-c2ccccc2)n1,12.8
23,Cc1cc(OCC(=O)NCc2ccncc2)c2c(C)cc(=O)oc2c1,13.7

row,SMILES,"hERG current change (%, negative = inhibition) at 1uM [%]"
1,CN1CCN(NC(=O)c2ccc(Cl)cc2Cl)CC1,6.25
2,COc1ccc(CCN2CC(C(=O)O)CC2=O)cc1OC (stereo not shown),2.95
3,O=C(COC(=O)CCc1c[nH]c(=O)[nH]1)Nc1ccccc1,12.3
4,COc1ccccc1N1CCN(/N=C/C=C\c2ccccc2[N+](=O)[O-])CC1,4.77
5,COC(=O)c1c(C(=O)OC)c(-c2ccc(Cl)cc2)n2c1CS(=O)(=O)C2,8.05
6,Cc1ccc(NC(=O)CSc2nc3ccccc3c(=O)n2CCCC(=O)NCCCN2CCOCC2)cc1,-1.63
7,CCOC(=O)C1=C(c2ccccc2)N=c2s/c(=C\c3cccc(O)c3)c(=O)n2C1c1cccs1 (stereo not shown),14.9
8,CCCCn1c(SCc2ncc(-c3ccccc3)o2)nc2cc(S(N)(=O)=O)ccc21,10.2
9,CCOc1ccc(OCC)c(NC(=O)CSCC(=O)O)c1,-1.77
10,CCOc1ccccc1N/C=C(\C#N)c1nc2ccccc2n1C,2
11,CCOc1ccc(CCNC(=O)Cn2nc(C)c3c(C)n(-c4ccccc4)nc3c2=O)cc1,9.73
12,CN1CCN(c2nnc(-c3ccc(Cl)cc3)c3ccccc23)CC1,-3.34
13,O=C(N/N=C/c1c[nH]c2ccccc12)c1cccs1,11.8
14,Cc1ccc(CNC(=O)Nc2ccccc2)cc1,15.4
15,O=C(c1ccc(COc2ccccc2Cl)o1)N1N=C(C(F)F)CC1(O)C(F)F (stereo not shown),12.6
16,COc1cc2c(cc1OC)C(C)N(C(=O)c1cccc([N+](=O)[O-])c1)CC2 (stereo not shown),6.91
17,Cc1cc(N/C=C/C(=O)c2cccs2)ccc1F,25.5
18,CCC(=O)Nc1cc(C)c(NC(=O)CCc2ccccc2)cn1,7.24
19,CN(C)S(=O)(=O)c1ccc2c(c1)C(=O)c1cc(S(=O)(=O)N(C)C)ccc1CC2,16.2
20,Cn1cc(C(=O)NCC2COc3ccccc3O2)c(=O)c2cc(S(=O)(=O)N3CCCCC3)ccc21 (stereo not shown),16.2
21,O=C(O)c1ccc(S(=O)(=O)NC2CCCCCC2)cc1,13.5
22,COc1cc(NC(=O)COc2ccccc2)ccc1NC(=O)c1ccco1,-9.14
23,COc1ccc(Cl)cc1-c1nc(-c2ccc(NC(=O)c3ccncc3)cc2)no1,8.77

row,SMILES,"hERG current change (%, negative = inhibition) at 1uM [%]"
1,Cc1cccc(N(C(=O)c2csnn2)C(C(=O)NCc2ccccc2)c2cccs2)c1 (stereo not shown),1.76
2,COc1ccc(C(=O)Oc2c(CN3CCOCC3)cc(Cl)c3cccnc23)cc1OC,8.7
3,O=C(OC(C(=O)NC1CCCC1)c1ccc(F)cc1)c1ccno1 (stereo not shown),3.34
4,COCCCNC(=S)N1CCN(c2nc(-c3ccccc3)cs2)CC1,10.9
5,CC1(C)CC(=O)C(CC(=O)N2CCC(Cc3ccccc3)CC2)C(=O)C1,23.4
6,COCCCn1c2nc3ccccc3nc2c2c(=O)n(Cc3ccc(Cl)cc3)cnc21,5.24
7,CC(=O)c1cccc(NC(=O)NC2CCCc3ccccc32)c1 (stereo not shown),8.03
8,Cc1ccsc1CN(C)C(=O)C1CCC(=O)N(CCc2cccc(F)c2)C1 (stereo not shown),-3.49
9,c1cc2c3c(cccc3c1)NC(c1ccc3c(c1)OCO3)N2,12.7
10,N#CCCn1c(SCC(=O)N2CCN(S(=O)(=O)c3ccccc3)CC2)nc2ccccc21,5.5
11,COc1ccc(-n2c(Cc3cccn3C)nnc2SCC(N)=O)cc1,6.69
12,Cc1ccc(NCc2nnc(SCC(=O)O)n2-c2ccc(C)cc2)cc1,11.9
13,CCc1ccc(CN2CCN(S(=O)(=O)Cc3ccccc3)CC2)cc1.O=C(O)C(=O)O,10.2
14,CC(C)(C)C1CCCCC1NC(=O)c1ccncc1 (stereo not shown),12.8
15,CCOC(=O)N1CCN(C(=O)CSc2cc(C)nc3c(-c4ccccc4OC)c(C)nn23)CC1,12.9
16,CCN1C(=O)C(c2ccc(O)cc2)(c2ccc(O)cc2)c2ccccc21,7.13
17,CCC(=O)Nc1ccccc1,4.04
18,Cc1cccc(C(=O)N2CCCC(N3CCN(c4cccc(Cl)c4)CC3)C2)n1 (stereo not shown),-2.31
19,Cc1ccc(NC(=O)c2ccc(Cl)c(S(=O)(=O)N3CCCC3)c2)nc1,9.97
20,O=C(N1CCN(c2ccccc2)CC1)C(F)(F)C(F)(F)F,5.64
21,COCCNC(=O)COC(=O)c1[nH]c(C)c(C(C)=O)c1C,16.6
22,CC(=O)Nc1nc(C)c(-c2csc([NH2+]c3ccccn3)n2)s1.[Br-],-2.43
